Test results from PubChem BioAssay AID2675 (National Center for Advancing Translational Sciences (NCATS), 2010).
Hit rate of the full screen: of about 280,000 compounds, about 100 (0.036%) were called active. Inconclusive means that the source gave no clear call. Such entries were picked first, then a sample of the others. The call rests on the fitted dose curve; in most records, active means well fitted inhibition curve with a large enough effect in the signal ratio, with a control signal flat (not every such curve was filed as active); inconclusive means small, poorly fitted or top-dose-only effect, or effect the other way, or a change in a side signal; inactive means no such curve, though single readings can be large or run the other way; the % refers to the signal ratio. Where the call is inconclusive, the potency comes from a doubtful curve fit. A note “side channel” means that the fit belongs to a control or component signal, not to the main read-out.

Molecular target: Muscleblind-like protein 1 (Homo sapiens) (UniProt Q9NR56)
Assay: qHTS Assay for Inhibitors of MBNL1-poly(CUG) RNA binding
Conditions: TR-FRET MBNL1-His/biotin-(CUG)12 binding, 665/545 ratio; activity change, negative = inhibition: at 57.5 µM (top of the series)
How it was run: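 TR-FRET between His-tagged MBNL1 and biotin-(CUG)12 RNA, detected with Tb anti-His antibody (0.055 ng/ul) and streptavidin-XL665 (5 nM), 60 min at room temperature. Compounds titrated 92 nM to 58 uM; 665/545 nm ratio normalized to buffer and complex controls.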
On the % scale 0 is the no-effect control and ±100 the full control effect; potency means the concentration at half of the fitted maximal effect; tags describe the fitted curve by direction and shape or compound fluorescence and quenching.

Sequence of UniProt Q9NR56 (Q9NR56 whole entry, looked up): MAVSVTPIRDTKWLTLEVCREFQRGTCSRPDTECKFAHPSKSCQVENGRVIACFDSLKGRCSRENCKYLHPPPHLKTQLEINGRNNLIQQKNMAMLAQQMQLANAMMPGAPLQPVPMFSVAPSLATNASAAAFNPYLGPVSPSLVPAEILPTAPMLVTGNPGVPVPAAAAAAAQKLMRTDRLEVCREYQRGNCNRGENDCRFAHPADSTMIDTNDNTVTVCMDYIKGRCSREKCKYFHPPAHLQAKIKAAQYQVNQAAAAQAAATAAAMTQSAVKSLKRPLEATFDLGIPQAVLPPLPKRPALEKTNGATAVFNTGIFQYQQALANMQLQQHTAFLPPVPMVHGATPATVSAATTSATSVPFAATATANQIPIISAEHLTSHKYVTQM

SMILES	Potency	activity change, negative = inhibition
CSc1nc(N)n2nc(-c3ccccc3)cc2n1	inactive	–
COc1ccc(CCN=c2c([N+](=O)[O-])nn(-c3cccc(C)c3)n2O)cc1OC	inconclusive: 10 µM [quencher, side channel, partial curve]	–
COc1cc2c(C#N)c(N3CCCCC3)nc(N)c2c(N)n1	inactive	–
CN(CC(=O)N1CCN(Cc2ccccc2)CC1)S(=O)(=O)c1cccc2nsnc12	inconclusive: 15.8 µM [quencher, side channel, partial curve]	–
Cc1ccc(S(=O)(=O)N2CCC(=O)N(CCOCc3ccc(F)cc3)CC2)cc1	inconclusive: 126 µM [inhibitor, partial curve]	–
COc1ccc(-n2nc(C(=O)NCC(=O)N3CCN(c4ccccc4)CC3)c3ccccc3c2=O)cc1OC	inconclusive: 20 µM [quencher, side channel, partial curve]	–
CC(=O)N/C(=C\c1ccc(F)cc1)C(=O)OC(C)C	inconclusive: 0.0251 µM [fluorescent, side channel, full curve]	–
CCC(=O)OCC(=O)Nc1ccc([N+](=O)[O-])cc1OC	inconclusive: 15.8 µM [quencher, side channel, partial curve]	–
Nc1ccc(/C=C/c2ccc3ncccc3c2)cc1	inconclusive: 7.94 µM [quencher, side channel, partial curve]	–
CC1=C(C(=O)OCc2ccc3c(c2)OCO3)C(c2ccccc2)NC(=O)N1 (configuration not stated)	inactive	–
CC(CN1CCN(C)CC1)OC(=O)c1cccc(F)c1 (configuration not stated)	inactive	–
Cc1ccccc1NS(=O)(=O)c1ccc(OCC(=O)NCC2CCCO2)cc1 (configuration not stated)	inactive	–
Cn1c(N2CCOCC2)c(/C=N/OC(=O)c2cccnc2Cl)c2ccccc21	inconclusive: 31.6 µM [quencher, side channel, single point]	–
Cn1cccc1CC(=O)N/N=C/C=C/c1ccccc1	inconclusive: 10 µM [quencher, side channel, partial curve]	–
CCOC(=O)C1=NN(c2ccc(C)cc2)CC1C(=O)OC (configuration not stated)	inconclusive: 10 µM [quencher, side channel, partial curve]	–
Cc1ccc(Cl)cc1NC(=O)Cn1nc(-c2cccs2)ccc1=O	inconclusive: 22.4 µM [quencher, side channel, partial curve]	–
Cc1sc2ncnc(Sc3nc4ccccc4s3)c2c1C	inconclusive: 39.8 µM [fluorescent, single point]	–
c1cc(Nc2cccc3nccnc23)c2nccnc2c1	inconclusive: 12.6 µM [quencher, partial curve]	–
Cc1ccc(N(CC(=O)N/N=C/c2cccnc2)S(=O)(=O)c2ccccc2)cc1	inconclusive: 0.794 µM [quencher, side channel, full curve, poor fit]	–
CC(=O)CSc1ncnc2sc3c(c12)CCC3	inactive	–
COc1ccccc1NC(=O)C/C(N)=N/O	inconclusive: 31.6 µM [quencher, single point]	–

SMILES	Potency	activity change, negative = inhibition
CC(=N\NC(=O)c1ccccc1)/C(=N/O)C(=O)Nc1ccccc1	inactive	–
O=[N+]([O-])c1ccc(N2CCc3ccccc3C2)nc1	inconclusive: 14.1 µM [quencher, side channel, partial curve]	–
COc1ccc(C2NC(=O)NC(C)=C2C(=O)OCc2ccc3c(c2)OCO3)cc1OC (configuration not stated)	inconclusive: 100 µM [inhibitor, partial curve, poor fit]	–
CCOC(=O)c1c(C)oc2c1c(C=NCCC(=O)O)c(O)c1ccccc12	inconclusive: 14.1 µM [quencher, side channel, partial curve]	–
COc1ccc(Cl)cc1N(CC(=O)N(C)C)S(=O)(=O)c1ccc(C)c([N+](=O)[O-])c1	inconclusive: 28.2 µM [quencher, side channel, single point]	–
O=C1NCCCC1C(=O)N/N=C/c1cc([N+](=O)[O-])ccc1O (configuration not stated)	inconclusive: 17.8 µM [quencher, side channel, partial curve]	–
CN(C)/C=C/C(=O)c1cnc(-c2ccccc2Cl)s1	inconclusive: 28.2 µM [quencher, side channel, partial curve]	–
COc1ccc(CCNC(=O)Cn2c(=O)cnc3ccccc32)cc1	inconclusive: 25.1 µM [quencher, side channel, partial curve]	–
Cc1nc(NC(=O)CSc2nnc(C3CC3)n2C)sc1C	inactive	–
CC(C(=O)Nc1sc2c(c1C(=O)NCC1CCCO1)CCC2)N1C(=O)c2ccccc2C1=O (configuration not stated)	inconclusive: 35.5 µM [fluorescent, side channel, partial curve, poor fit]	–
CC1CC(C)CN(C(=O)COC(=O)CCc2nc3ccccc3c(=O)[nH]2)C1 (configuration not stated)	–	inconclusive: -10.9% [phenotype inactive]
COc1cccc(/C=N/NC(=O)c2cc(-c3cccn3C)n[nH]2)c1	inactive	–
O=C1/C(=C/c2ccccc2)SC(=S)N1CC(=O)N1CCCCC1c1cccnc1 (configuration not stated)	inconclusive: 17.8 µM [quencher, side channel, partial curve]	–
CC(=O)NC(Cc1ccccc1)C(=O)OCC(=O)c1ccc(F)cc1 (configuration not stated)	inconclusive: 0.708 µM [fluorescent, side channel, full curve]	–
Nc1cc(C(F)(F)F)cc([N+](=O)[O-])c1N	inconclusive: 39.8 µM [quencher, single point]	–
CC(Oc1ccc(Cl)cc1Cl)C(=O)Nc1ccncc1 (configuration not stated)	inactive	–
Cc1cc(NC(=O)COc2ccc(Cl)cc2Cl)n(-c2ccccc2)n1	inactive	–
S=c1[nH]nc2nnc3ccccc3n12	inconclusive: 7.08 µM [quencher, side channel, partial curve]	–
Cc1cc(C)cc(NC(=O)CN(C)S(=O)(=O)c2cccc3nsnc23)c1	inconclusive: 14.1 µM [quencher, side channel, partial curve]	–
Cc1cccc(Nc2nc(N)nc(CCl)n2)c1	inactive	–
COc1ccc(CNC(=O)C2CCC(CNS(=O)(=O)c3cccc4nsnc34)CC2)cc1 (configuration not stated)	inconclusive: 2.51 µM [quencher, side channel, full curve, poor fit]	–

SMILES	Potency	activity change, negative = inhibition
COCCNC(=O)C(c1ccc(F)cc1)N(C(=O)CCC(=O)Nc1nccs1)c1cccc(C)c1 (configuration not stated)	inactive	–
O=C(O)COc1ccc2c(c1)O/C(=C\c1cccs1)C2=O	inconclusive: 15.8 µM [quencher, side channel, partial curve]	–
C#Cc1cccc(NC(=O)c2ccc3c(c2)C(=O)N(Cc2cccnc2)C3=O)c1	inconclusive: 25.1 µM [quencher, side channel, partial curve]	–
O=C(Oc1ccccc1)c1ccc2nsnc2c1	inconclusive: 4.47 µM [quencher, side channel, partial curve]	–
COCCN(C(=O)Cc1cccs1)C(C(=O)NCc1ccc(OC)cc1)c1ccc(C)cc1 (configuration not stated)	inconclusive: 5.01 µM [fluorescent, side channel, full curve, poor fit]	–
COc1ccc(C2=NS(=O)(=O)N(C)C(C(=O)NC3CCCC3)=C2)cc1OC	inconclusive: 20 µM [quencher, single point]	–
Cc1cc(C)n2nc(SCn3nnc4ccccc4c3=O)nc2n1	inconclusive: 22.4 µM [quencher, side channel, single point]	–
CCCc1nc2nc(C)c(NS(=O)(=O)c3ccc([N+](=O)[O-])cc3)c(=O)n2[nH]1	inconclusive: 2.24 µM [quencher, side channel, full curve]	–
CSc1ccc(-c2nc(CSCC(=O)NCCCN3CCCC3=O)c(C)o2)cc1	inconclusive: 39.8 µM [quencher, side channel, single point]	–
CC1CCN(C(=O)COc2ccc(Nc3ccccc3)cc2)CC1	inactive	–
COc1ccc(C(=O)NC2CC2)cc1OC1CCN(Cc2cc(C)c(C)cc2C)CC1	inactive	–
O=[N+]([O-])c1cc(/C=N/O)ccc1N1CCCC1	inconclusive: 15.8 µM [quencher, partial curve]	–
Cc1cccc(Nc2nc(N)c([N+](=O)[O-])c(N3CCN(C)CC3)n2)c1	inactive	–
Nc1nc(CSc2nnnn2-c2ccccc2)nc(N2CCCc3ccccc32)n1	inconclusive: 7.08 µM [quencher, side channel, partial curve]	–
CCOC(=O)N1CCN(C(=O)c2ccc3nc4ccsc4c(=O)n3c2)CC1	inconclusive: 0.112 µM [quencher, side channel, full curve, poor fit]	–
N/C(=N\N=C\c1ccc(O)c(O)c1)c1nonc1N	inconclusive: 10 µM [quencher, side channel, partial curve]	–
O=C(O)c1ccc(N2CC3CC(C2)c2cccc(=O)n2C3)c(NC(=S)Nc2ccc(Cl)cc2Cl)c1 (configuration not stated)	inactive	–
COc1ccc2[nH]c(=O)c3c(c2c1)OC(C)(C)C=C3	inconclusive: 25.1 µM [quencher, side channel, single point]	–
CCSc1nc2c(c(=O)n1-c1ccc(F)cc1)SCC2	inconclusive: 0.1 µM [quencher, side channel, full curve]	–
NC(=O)CC[C@@H]1NC(=O)[C@H](CO)NC(=O)c2cc([N+](=O)[O-])cc(I)c2NCCCC[C@@H](C(N)=O)NC(=O)[C@H](Cc2ccc(O)cc2)NC1=O	inconclusive: 20 µM [quencher, side channel, partial curve]	–
